In the supplement of paper PMC8728848:
This is one part of the list.

Legend:
Assay in all cases: glycan array binding signal (z-score within array); higher = stronger binding
Conditions in all cases: glycan notation: IUPAC condensed, linker removed
Gal(b1-2)Gal = biological target: Gal(b1-2)Gal
In short: (§1)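 Glycan array data came from 3228 arrays in the Consortium for Functional Glycomics database, and only arrays with an available protein sequence were kept. Glycan names were put into IUPAC-condensed notation, and columns mapping to the same glycan were averaged. The binding signal is a within-array Z-score, averaged across arrays of one protein sequence run at different concentrations or buffers and across linkers. A negative Z-score can be read as non-binding.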

Gal(b1-3)Gal = biological target: Gal(b1-3)Gal
In short: as §1

Gal(b1-3)Gal(b1-4)GlcNAc = biological target: Gal(b1-3)Gal(b1-4)GlcNAc
In short: as §1

Gal(b1-3)GalNAc = biological target: Gal(b1-3)GalNAc
In short: as §1

[1] = biological target: Gal(b1-3)GalNAc(a1-3)[Fuc(a1-2)]Gal(b1-4)Glc
In short: as §1

[2] = biological target: Gal(b1-3)GalNAc(a1-3)[Fuc(a1-2)]Gal(b1-4)GlcNAc
In short: as §1

Gal(b1-3)GalNAc(b1-3)Gal = biological target: Gal(b1-3)GalNAc(b1-3)Gal
In short: as §1

[3] = biological target: Gal(b1-3)GalNAc(b1-3)Gal(a1-4)Gal(b1-4)Glc
In short: as §1

[4] = biological target: Gal(b1-3)GalNAc(b1-4)Gal(b1-4)Glc
In short: as §1

[5] = biological target: Gal(b1-3)GalNAc(b1-4)[Neu5Ac(a2-3)]Gal(b1-4)Glc
In short: as §1

Gal(b1-3)GlcNAc = biological target: Gal(b1-3)GlcNAc
In short: as §1

[6] = biological target: Gal(b1-3)GlcNAc(a1-3)Gal(b1-4)GlcNAc
In short: as §1

[7] = biological target: Gal(b1-3)GlcNAc(a1-6)Gal(b1-4)GlcNAc
In short: as §1

Gal(b1-3)GlcNAc(b1-2)Man = biological target: Gal(b1-3)GlcNAc(b1-2)Man
In short: as §1

[8] = biological target: Gal(b1-3)GlcNAc(b1-2)Man(a1-3)[Gal(b1-3)GlcNAc(b1-2)Man(a1-6)]Man(b1-4)GlcNAc(b1-4)GlcNAc
In short: as §1

[9] = biological target: Gal(b1-3)GlcNAc(b1-2)Man(a1-3)[Gal(b1-3)GlcNAc(b1-2)Man(a1-6)]Man(b1-4)GlcNAc(b1-4)[Fuc(a1-6)]GlcNAc
In short: as §1

[10] = biological target: Gal(b1-3)GlcNAc(b1-2)Man(a1-3)[GlcNAc(b1-4)][Gal(b1-3)GlcNAc(b1-2)Man(a1-6)]Man(b1-4)GlcNAc(b1-4)GlcNAc
In short: as §1

[11] = biological target: Gal(b1-3)GlcNAc(b1-2)[Gal(b1-3)GlcNAc(b1-6)]Man(a1-6)[Gal(b1-3)GlcNAc(b1-2)Man(a1-3)]Man(b1-4)GlcNAc(b1-4)GlcNAc
In short: as §1

[12] = biological target: Gal(b1-3)GlcNAc(b1-3)Gal(b1-3)GlcNAc
In short: as §1

[13] = biological target: Gal(b1-3)GlcNAc(b1-3)Gal(b1-4)Glc
In short: as §1

[14] = biological target: Gal(b1-3)GlcNAc(b1-3)Gal(b1-4)GlcNAc
In short: as §1

[15] = biological target: Gal(b1-3)GlcNAc(b1-3)Gal(b1-4)GlcNAc(b1-2)Man(a1-3)[Gal(b1-3)GlcNAc(b1-3)Gal(b1-4)GlcNAc(b1-2)Man(a1-6)]Man(b1-4)GlcNAc(b1-4)GlcNAc
In short: as §1

[16] = biological target: Gal(b1-3)GlcNAc(b1-3)Gal(b1-4)GlcNAc(b1-2)[Gal(b1-3)GlcNAc(b1-3)Gal(b1-4)GlcNAc(b1-6)]Man(a1-6)[Gal(b1-3)GlcNAc(b1-3)Gal(b1-4)GlcNAc(b1-2)Man(a1-3)]Man(b1-4)GlcNAc(b1-4)[Fuc(a1-6)]GlcNAc
In short: as §1

[17] = biological target: Gal(b1-3)GlcNAc(b1-3)Gal(b1-4)GlcNAc(b1-3)Gal(b1-4)GlcNAc(b1-2)[Gal(b1-3)GlcNAc(b1-3)Gal(b1-4)GlcNAc(b1-3)Gal(b1-4)GlcNAc(b1-6)]Man(a1-6)[Gal(b1-3)GlcNAc(b1-3)Gal(b1-4)GlcNAc(b1-3)Gal(b1-4)GlcNAc(b1-2)Man(a1-3)]Man(b1-4)GlcNAc(b1-4)[Fuc(a1-6)]GlcNAc
In short: as §1

[18] = biological target: Gal(b1-3)GlcNAc(b1-3)Gal(b1-4)GlcNAc(b1-6)[Gal(b1-3)GlcNAc(b1-3)]Gal(b1-4)Glc
In short: as §1

[19] = biological target: Gal(b1-3)GlcNAc(b1-3)Gal(b1-4)[Fuc(a1-3)]GlcNAc
In short: as §1

[20] = biological target: Gal(b1-3)GlcNAc(b1-3)Gal(b1-4)[Fuc(a1-3)]GlcNAc(b1-6)[Gal(b1-3)GlcNAc(b1-3)]Gal(b1-4)Glc
In short: as §1

[21] = biological target: Gal(b1-3)GlcNAc(b1-3)GalNAc
In short: as §1

[22] = biological target: Gal(b1-3)GlcNAc(b1-6)Gal(b1-4)GlcNAc
In short: as §1

[23] = biological target: Gal(b1-3)GlcNAc(b1-6)GalNAc
In short: as §1

[24] = biological target: Gal(b1-3)GlcNAc(b1-6)[Gal(b1-3)]GalNAc
In short: as §1

Gal(b1-3)GlcNAc6S = biological target: Gal(b1-3)GlcNAc6S
In short: as §1

[25] = biological target: Gal(b1-3)[Fuc(a1-4)]GlcNAc
In short: as §1

[26] = biological target: Gal(b1-3)[Fuc(a1-4)]GlcNAc(b1-2)Man
In short: as §1

[27] = biological target: Gal(b1-3)[Fuc(a1-4)]GlcNAc(b1-2)Man(a1-3)[Gal(b1-3)[Fuc(a1-4)]GlcNAc(b1-2)Man(a1-6)]Man(b1-4)GlcNAc(b1-4)[Fuc(a1-6)]GlcNAc
In short: as §1

[28] = biological target: Gal(b1-3)[Fuc(a1-4)]GlcNAc(b1-3)Gal(b1-3)[Fuc(a1-4)]GlcNAc
In short: as §1

[29] = biological target: Gal(b1-3)[Fuc(a1-4)]GlcNAc(b1-3)Gal(b1-4)[Fuc(a1-3)]GlcNAc
In short: as §1

B1: SP8524D-bot-399-27-399 (Bacteroides ovatus) (protein)
chain: DAKYDTLDTHAYIEEALSSTSQKVTVQATGESFTTLNVHLSNLSSTDNHYKLVTDQSVLDTYNHINGTGYIMLPKDYYTLPETITVKAGQYAADALSIALKAFSQEMMKSGESYALPVKLVLQDGSISPMENTGTFVILAESIIEFSAPMFVGAPSLKANKFTESPETYSQYTIEVRFQVANTADRDRAVFKNGGDDANFILLRFEDPQSDNENYKAHSLVQIVGRNRLYLNPSNSFKPNEWQHLALVCDGSNYRLYINGVDSGVLSIPTGATTFSDVNWFCLGDDSYSRWGNCKILMSEARIWSVVRSASQIQNNMTQVSPKSVGLEAYWRFNEGQGNVFEDATGKGHTLTTSATPTWIDGILSTDKSTEWK
In the case of B1, the “glycan array binding signal (z-score)” value (Gal(b1-2)Gal) is reported as -0.194, the “glycan array binding signal (z-score)” value (Gal(b1-3)Gal) is reported as -0.011 and the “glycan array binding signal (z-score)” value (Gal(b1-3)Gal(b1-4)GlcNAc) is reported as -0.023. For the same binder, the “glycan array binding signal (z-score)” value (Gal(b1-3)GalNAc) was -0.31, the “glycan array binding signal (z-score)” value [1] was 0.263 and the “glycan array binding signal (z-score)” value [2] was -0.073. For the same binder, the “glycan array binding signal (z-score)” value (Gal(b1-3)GalNAc(b1-3)Gal) was 0.146, the “glycan array binding signal (z-score)” value [3] was -0.491 and the “glycan array binding signal (z-score)” value [4] was 0.485. The “glycan array binding signal (z-score)” value [5] was -0.183, the “glycan array binding signal (z-score)” value (Gal(b1-3)GlcNAc) was 0.089 and the “glycan array binding signal (z-score)” value [6] was 0.336. For the same binder, the “glycan array binding signal (z-score)” value [7] was -0.089, the “glycan array binding signal (z-score)” value (Gal(b1-3)GlcNAc(b1-2)Man) was 0.099 and the “glycan array binding signal (z-score)” value [8] was -0.031. For the same binder, the “glycan array binding signal (z-score)” value [9] was -0.351, the “glycan array binding signal (z-score)” value [10] was 0.168 and the “glycan array binding signal (z-score)” value [11] was 0.024. For the same binder, the “glycan array binding signal (z-score)” value [12] was -0.386, the “glycan array binding signal (z-score)” value [13] was -0.359 and the “glycan array binding signal (z-score)” value [14] was -0.826. For the same binder, the “glycan array binding signal (z-score)” value [15] was -0.128, the “glycan array binding signal (z-score)” value [16] was 0.43 and the “glycan array binding signal (z-score)” value [17] was 0.663. The “glycan array binding signal (z-score)” value [18] was -0.275, the “glycan array binding signal (z-score)” value [19] was -0.174 and the “glycan array binding signal (z-score)” value [20] was -0.379. The “glycan array binding signal (z-score)” value [21] was -0.467, the “glycan array binding signal (z-score)” value [22] was 0.021 and the “glycan array binding signal (z-score)” value [23] was 0.738. For the same binder, the “glycan array binding signal (z-score)” value [24] was 0.059, the “glycan array binding signal (z-score)” value (Gal(b1-3)GlcNAc6S) was -0.686 and the “glycan array binding signal (z-score)” value [25] was -0.42. For the same binder, the “glycan array binding signal (z-score)” value [26] was 0.35, the “glycan array binding signal (z-score)” value [27] was 0.1 and the “glycan array binding signal (z-score)” value [28] was -0.253. The “glycan array binding signal (z-score)” value [29] was 0.225.
